Reference: PubChem BioAssay AID686978 (National Center for Advancing Translational Sciences (NCATS), 2013)
About 64,000 (15%) of roughly 420,000 compounds were called active. The shares of active, inactive and inconclusive entries below differ from those in the screen. The call rests on the fitted dose curve; in most records, active means well fitted inhibition curve with a large enough effect; inconclusive means small, poorly fitted or top-dose-only effect; inactive means flat fitted curve, though single readings scatter. Potencies of inconclusive entries are left out as doubtful fits.

Experiment: qHTS for Inhibitors of human tyrosyl-DNA phosphodiesterase 1 (TDP1): qHTS in cells in absence of CPT; further: nearly all actives have a fitted effect of over 55% in size
Details: DT40 Tdp1-/- hTDP1 cells, no CPT, ATP luminescence, 48 h; activity change, negative = growth inhibition: at 46.2 µM (top of the series) unless noted
Outline: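 Readout: luminescence from CellTiter-Glo after 30 min in the dark at RT. Cells: DT40 Tdp1-/- with stable hTDP1, 400/well. Exposure: compounds alone, ≥48 hr, 37 °C.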
On the % scale 0 is the no-effect control and ±100 the full control effect; potency means the concentration at half of the fitted maximal effect; tags describe the fitted curve by direction and shape.

SMILES	Potency	activity change, negative = growth inhibition
CCOC(=O)N1CCN(c2nc3ccccc3nc2C(C#N)S(=O)(=O)c2ccc(C)cc2)CC1 (stereo unspecified)	inconclusive [inhibitor, single point]	
S=c1[nH]nc(-c2ccc(Cl)cc2)n1Cc1ccccc1	inconclusive [inhibitor, single point]	
CC(NC(=O)c1ccc(N(C)C)cc1)C1CC2CCC1C2 (stereo unspecified)	inconclusive [inhibitor, single point]	
CCOc1ccc(CNC(=O)C2CCCN(S(=O)(=O)N3CCC(C)CC3)C2)cc1OC (stereo unspecified)	inconclusive [inhibitor, single point]	
COc1ccc(S(=O)(=O)NCC(c2ccc3c(c2)OCO3)N2CCOCC2)cc1 (stereo unspecified)		inactive: 0.605%
CN1C(=O)C(C)(C)c2cc(S(=O)(=O)N3CCN(c4ccccc4F)CC3)ccc21	active: 23.1 µM	
Cc1cc(=O)[nH]c(N/N=C/c2cc(C)n(-c3ccccc3)c2C)n1	inconclusive [inhibitor, partial curve]	
CCn1cc(C(=O)O)c(=O)c2cc(F)c(N3CCN(C(=S)NC(=O)c4ccccc4F)CC3)cc21	active: 14.6 µM	
O=C(Nc1ccn(CCCNCC(c2ccccc2)c2ccccc2)c(=O)n1)OCc1ccccc1	active: 23.1 µM	
O=c1c2ccccc2nc(SCc2ccncc2)n1CC1CCCO1 (stereo unspecified)	inconclusive [inhibitor, single point]	
Cc1cccc(C)c1Nc1c(-c2cccs2)nc2ncccn12	inconclusive [inhibitor, partial curve, poor fit]	
O=[N+]([O-])c1ccccc1NS(=O)(=O)c1ccccc1		inactive: -27%
CC1=NN(C(C#N)c2c(C)nn(Cc3ccccc3)c2C)C(C)(C)C1 (stereo unspecified)		inactive: 2.69%
CN(C)S(=O)(=O)N1CCC(Oc2cccc(C(=O)NC3CCCCC3)c2)CC1	inconclusive [inhibitor, partial curve]	
CC(=O)Oc1ccc(-c2ccc(C(=O)OCC(=O)N(C)CC(=O)Nc3ccccc3Cl)cc2)cc1		inactive: -15.9%
Cc1nc(N2CCN(S(=O)(=O)c3ccccc3)CC2)c2cc(-c3ccccc3)sc2n1	inconclusive [inhibitor, partial curve]	
CN(Cc1ccc(F)cc1)C(=O)c1cccc(OCc2ccccc2)c1	inconclusive [inhibitor, single point]	
O=C(CSCc1nc2ccccc2[nH]1)N1CCN(c2ccc(F)cc2)CC1	active: 18.4 µM	
Cc1cc2ccccc2n1CCNC(=O)c1ccc(S(=O)(=O)N2CCCCC2)cc1	inconclusive [inhibitor, single point]	
CN(C)CCCNc1oc(-c2ccc(Cl)cc2)nc1S(=O)(=O)c1ccccc1	active: 16.4 µM	
O=C(Cc1ccccc1)NC(NC(=S)Nc1cc(Cl)ccc1Cl)C(Cl)(Cl)Cl (stereo unspecified)	active: 23.1 µM	
CCn1c2ccccc2c2cc(NC(=O)C(C)Oc3ccccc3)ccc21 (stereo unspecified)	inconclusive [inhibitor, single point]	
CCCCCSc1nc(N2CCOCC2)c2c(c1C#N)CC(C)(C)OC2	inconclusive [inhibitor, partial curve]	

SMILES	Potency	activity change, negative = growth inhibition
ClC/C=C/C[n+]1ccccc1Cl		inactive: -12.5%
O=C(Nc1ccccc1-c1nnn(CC(=O)N2CCCc3ccccc32)n1)c1ccc(Cl)cc1	inconclusive [inhibitor, single point]	
COc1ccc(CCNC(=O)C2CC(c3c(Cl)cccc3Cl)=NO2)cc1 (stereo unspecified)	inconclusive [inhibitor, single point]	
CC(=O)c1ccc(NC(=O)c2ccc(NC(=O)CCS(=O)(=O)c3cccs3)cc2)cc1	inconclusive [inhibitor, single point]	
Cc1ccccc1-n1c(SCC(=O)Nc2ccc3c(c2)OCO3)nnc1-c1ccccn1	inconclusive [inhibitor, single point]	
Cc1nc(-c2ccc(S(=O)(=O)NCc3ccccn3)s2)cs1	inconclusive [inhibitor, partial curve, poor fit]	
O=C(CN(CC1CCCO1)C(=O)CNS(=O)(=O)c1ccc(F)cc1)NC1CCCC1 (stereo unspecified)		inactive: -24%
Cc1cccc(OCCSc2nc3ccc(NC(=O)c4cccs4)cc3s2)c1	active: 11.6 µM	
COC(=O)[C@@]12C[C@@H](CC(=O)N3CCOCC3)C(=O)N(Cc3ccc4c(c3)OCO4)C1=CCC(C)(C)C2		inactive: -29.4%
NC(=S)NN=Cc1ccc(-c2ccc(S(=O)(=O)Nc3ncccn3)cc2)o1	inconclusive [inhibitor, single point]	
Cc1ccc(C)c(NC(=O)CN(C)C(=O)c2ccccc2OCc2ccc(Cl)cc2)c1	inconclusive [inhibitor, single point]	
O=Cc1cc(N=Nc2cccc(C(=O)O)c2)ccc1O	inconclusive [inhibitor, partial curve]	
O=C(c1ccc[nH]c1=S)N1CCN(S(=O)(=O)c2ccc(Br)cc2Cl)CC1		inactive: -9.07%
CC1=C(C(=O)N(C)C)C(c2ccccc2OC(F)F)NC(=O)N1 (stereo unspecified)		inactive: -14.3%
COc1ccc2c(c1)C1OCCC1C(c1ccco1)N2 (stereo unspecified)	inconclusive [inhibitor, single point]	
O=C(CCCc1cccs1)Nc1nc2c(s1)CCCC2		inactive: -20.5%
O=C1CCC(OCc2ccccc2)CCN1[C@H](CSc1ccccc1)Cc1ccccc1 (stereo partly specified)	active: 16.4 µM	
CC(C)C(NC(=O)c1c(F)cccc1F)C(=O)N1CCN(c2ncccn2)CC1 (stereo unspecified)		inactive: -19.5%
O=c1[nH]cc(C=NNc2ccccc2)c(=O)[nH]1		inactive: -7.62%
COc1cc(NS(=O)(=O)c2ccc(NC(=S)Nc3ccccc3)cc2)nc(OC)n1		inactive: 11.3%
O=C(Nc1ccc2c(c1)OCCO2)c1cccc2nc3ccccc3nc12	active: 14.6 µM	
O=C(NC1=NCCS1)c1cccc2ccccc12		inactive: 13%
COC(=O)[C@@]12C[C@@H](CC(=O)NCc3ccccc3)C(=O)N(Cc3ccccc3)C1=CCC(C)(C)C2	inconclusive [inhibitor, single point]	
